Laboratory results reported in PubChem BioAssay (Tox21).
Values joined by “and” are separate entries in the source; they are usually repeats but may differ in a detail not shown here. Identical values can stand only once. Inconclusive results, whose numbers are uncertain, are shown with a selection of clear calls. A potency beside an inconclusive call is a rough fit, not a confirmed value. Active and inactive are the calls of the source. Calls follow the shape of the dose curve; as a rule, active = well fitted cell-killing curve with a large enough effect in the repeat runs; inconclusive = weak or mixed curves, or effect the other way; inactive = flat fitted curve, though single readings scatter.
Potency is read from the fitted curve at half-maximal effect; tags tell the direction and shape of the fitted curve.

Assay: qHTS RealTime-Glo MT Cell Viability Assay in HEK293 cells - 32 hour (AID 1224868); also: nearly all actives have a fitted effect of over 50% in size
Details: RealTime-Glo luminescence; series mostly up to 76.8 µM
How it was run: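 Nonlytic real-time viability readout: viable cells convert prosubstrate to NanoLuc substrate, giving luminescence proportional to live cell number. HEK293, 600 cells/well, compound added after 5 h, continuous culture at 37 C.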
For `CC(C)(C)[C@@H](O)[C@@H](Cc1ccc(Cl)cc1)n1cncn1`, the Potency was inconclusive: 54.6 µM [cytotoxic, single point] and inconclusive: 43.6 µM [cytotoxic, partial curve, poor fit]. For `c1ccc2cnncc2c1`, the Potency was inconclusive: 61.8 µM [rising, partial curve, poor fit]. With `CCCCCCCCCCCCOCCOS(=O)(=O)O` the Potency was inconclusive: 49 µM [cytotoxic, single point]. With `COc1ccc2c(c1)c(CC(=O)O)c(C)n2C(=O)c1ccc(Cl)cc1` the Potency was inconclusive: 10.7 µM [rising, single point]. For `COC(=O)C(C)(C)C`, the Potency was inconclusive: 49.7 µM [cytotoxic, partial curve, poor fit]. With `CCc1c2c(nc3ccc(OC(=O)N4CCC(N5CCCCC5)CC4)cc13)-c1cc3c(c(=O)n1C2)COC(=O)[C@]3(O)CC` the Potency was active: 2.68 µM. For `CN1CCC(=C2c3ccccc3Sc3ccccc32)CC1`, the Potency was inconclusive: 26.8 µM [cytotoxic, single point]. With `Cc1ccc(S(=O)(=O)N=C=O)cc1` the Potency was “inactive”. In the case of `O=C1Nc2ccc([N+](=O)[O-])cc2C1=O`, the Potency was inconclusive: 61.5 µM [cytotoxic, single point]. With `O=C1c2cccc(O)c2C(=O)c2c(O)cc(CO)cc21` the Potency was inconclusive: 27.5 µM [rising, partial curve].
